The supplement of paper PMC9446081
The campaign covered roughly 39,000 compounds. About 220 (0.56%) showed activity. The list shows a part of the results.
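Note: static incubation at 37 °C against the wild-type strain, values averaged over two biological replicates.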

Each compound was assayed on Escherichia coli K-12 BW25113 (assay: relative growth (OD600 normalised to plate interquartile mean) (fraction); higher = less growth inhibition, active = 0.2 or less). Conditions: 50 µM; LB; incubation time: overnight (16-24 h).
In the case of NC(=O)[C@@H]1C(=O)C[C@@H]2C[C@@H]3Cc4cccc(O)c4C(=O)[C@@H]3C(=O)[C@]2(O)C1=O, the relative growth is reported as active: 0.164.
In the case of C[C@@H]1CN([C@H](C)CO)C(=O)c2cc(NS(=O)(=O)c3cccs3)ccc2O[C@@H](C)CCCCO[C@@H]1CN(C)Cc1ccc(C(F)(F)F)cc1, the relative growth is reported as inactive: 1.09.
With C[C@@H]1CN([C@H](C)CO)C(=O)c2cc(NC(=O)Nc3ccc(C(F)(F)F)cc3)ccc2O[C@@H]1CN(C)Cc1ccc2c(c1)OCO2 the relative growth was inactive: 0.959.
For C[C@@H]1CN([C@@H](C)CO)S(=O)(=O)c2ccc(-c3cccnc3)cc2O[C@H]1CN(C)C(=O)c1cccc(F)c1, the relative growth was inactive: 1.02.
In the case of Cc1noc(C)c1S(=O)(=O)Nc1ccc2c(c1)CC(=O)N([C@@H](C)CO)C[C@H](C)[C@@H](CN(C)S(=O)(=O)c1ccc(F)cc1)O2, the relative growth is reported as inactive: 1.
In the case of C[C@H]1CN([C@@H](C)CO)C(=O)c2cccc(NS(=O)(=O)c3ccccc3)c2O[C@H]1CN(C)C(=O)Nc1cccc2ccccc12, the relative growth is reported as inactive: 0.997.
C[C@H](CO)N1C[C@H](C)[C@H](CN(C)Cc2ccccc2)Oc2c(NC(=O)C3CCOCC3)cccc2C1=O was tested, and the relative growth was inactive: 0.995.
With C[C@@H]1CN([C@H](C)CO)C(=O)Cc2cc(NC(=O)Nc3cccc4ccccc34)ccc2O[C@H]1CN(C)Cc1ccc(C(=O)O)cc1 the relative growth was inactive: 0.988.
With COCC(=O)N1C[C@]2(C1)CN([C@@H](CO)c1[nH]c3cc(ccc3c12)OC)S(=O)(=O)C the relative growth was inactive: 1.01.
In the case of C[C@H](CO)N1C[C@H](C)[C@@H](CN(C)C(=O)Nc2cccc3ccccc23)OCCCC[C@H](C)Oc2ccc(NS(=O)(=O)c3ccccc3)cc2C1=O, the relative growth is reported as inactive: 1.03.
CN1CCN(C(=O)C[C@H]2CC[C@H]3[C@@H](COc4ccc(NC(=O)c5cscn5)cc4C(=O)N3C)O2)CC1 was tested, and the relative growth was inactive: 1.02.
C[C@@H]1CN([C@@H](C)CO)C(=O)c2cc(C#Cc3ccccc3F)cnc2O[C@@H]1CN(C)C(=O)c1ccc2c(c1)OCO2 was tested, and the relative growth was inactive: 1.02.
With CC(=O)NCCCC[C@@H]1NC(=O)[C@H]2C[C@@H](C(=O)NCCCCCCN(C)C)[C@@H](c3ccc(O)cc3)N2C1=O the relative growth was inactive: 0.947.
For C[C@H](CO)N1C[C@H](C)[C@H](CN(C)C(=O)Nc2ccc(C(F)(F)F)cc2)OCCCC[C@H](C)Oc2ccc(NC(=O)CCC(F)(F)F)cc2C1=O, the relative growth was inactive: 0.973.
O=C1c2ccccc2[C@](Cc2ccccc2I)(C(=O)NCc2ccccc2)[C@H](c2ccc(CO)cc2)N1Cc1ccccc1C(F)(F)F was tested, and the relative growth was inactive: 1.02.
CCCNC(=O)C[C@@H]1CC[C@@H]2[C@H](COc3ccc(NC(=O)c4ccc5c(c4)OCO5)cc3C(=O)N2C)O1 was tested, and the relative growth was inactive: 0.984.
For CCCCOc1ccc([C@@H]2c3c(oc4ccc(Br)cc4c3=O)C(=O)N2CCCN2CCOCC2)cc1, the relative growth was inactive: 0.975.
In the case of NC(=O)c1ccc[n+](CC(=O)c2ccccc2)c1, the relative growth is reported as inactive: 1.03.
For COCC(=O)N[C@H]1C=C[C@H](CC(=O)N2CCCCC2)O[C@H]1CO, the relative growth was inactive: 0.976.
In the case of C[C@@H]1CN([C@H](C)CO)C(=O)c2cccc(NS(=O)(=O)c3ccc(F)cc3)c2O[C@H]1CN(C)S(=O)(=O)c1cccs1, the relative growth is reported as inactive: 0.996.
In the case of C[C@@H]1CN([C@@H](C)CO)C(=O)c2cc(NC(=O)Nc3ccccc3)ccc2O[C@@H](C)CCCCO[C@@H]1CN(C)Cc1ccc2c(c1)OCO2, the relative growth is reported as inactive: 0.975.
With CC(C)NC(=O)N(C)C[C@@H]1Oc2c(NC(=O)Nc3ccc4c(c3)OCO4)cccc2C(=O)N([C@H](C)CO)C[C@@H]1C the relative growth was inactive: 0.996.
With C[C@@H]1CN([C@@H](C)CO)S(=O)(=O)c2ccc(C#CC3CC3)cc2O[C@@H]1CN(C)C(=O)c1cccc(F)c1 the relative growth was inactive: 1.06.
In the case of COc1ccc(NC(=O)Nc2ccc3c(c2)C(=O)N([C@@H](C)CO)C[C@@H](C)[C@@H](CN(C)Cc2ccc4c(c2)OCO4)OCCCC[C@@H](C)O3)cc1, the relative growth is reported as inactive: 0.988.
For C[C@@H]1CCCCO[C@@H](CN(C)C(=O)Nc2cccc3ccccc23)[C@H](C)CN([C@@H](C)CO)C(=O)c2cc(NC(=O)Nc3ccc4c(c3)OCO4)ccc2O1, the relative growth was inactive: 1.06.
With C[C@@H]1CCCCO[C@H](CN(C)C(=O)Nc2ccccc2)[C@@H](C)CN([C@H](C)CO)C(=O)c2cc(NC(=O)Nc3cccc4ccccc34)ccc2O1 the relative growth was inactive: 0.977.
With COc1ccc(CN(C)C[C@H]2Oc3ccc(NC(=O)Nc4cccc5ccccc45)cc3CC(=O)N([C@@H](C)CO)C[C@H]2C)cc1 the relative growth was inactive: 0.991.
For C[C@@H]1CN([C@@H](C)CO)C(=O)c2cc(NC(=O)CCN3CCOCC3)ccc2O[C@@H]1CN(C)S(=O)(=O)c1ccccc1, the relative growth was inactive: 0.994.
CO[C@@H]1CN(C)C(=O)c2ccc(NC(=O)Nc3ccc4c(c3)OCO4)cc2OC[C@@H](C)N(C(C)=O)C[C@H]1C was tested, and the relative growth was inactive: 1.
With CC(=O)NCCCC[C@@H]1NC(=O)[C@H]2C[C@@H](C(=O)NCCCCCNC(=O)CS)[C@@H](c3ccc(O)cc3)N2C1=O the relative growth was inactive: 0.984.
Cc1noc(C)c1NC(=O)Nc1cccc2c1O[C@@H](CN(C)C(=O)Nc1cccc3ccccc13)[C@H](C)CN([C@H](C)CO)C2=O was tested, and the relative growth was inactive: 0.982.
In the case of Cc1ccc2cccc(OCCOc3ccccc3C(C)C)c2n1, the relative growth is reported as inactive: 1.05.
Cc1ccc(O)cc1 was tested, and the relative growth was inactive: 1.05.
For COc1ccc(CN(C)C[C@H]2OCCCC[C@@H](C)Oc3ccc(NC(=O)Nc4cccc5ccccc45)cc3C(=O)N([C@H](C)CO)C[C@@H]2C)cc1, the relative growth was inactive: 0.984.
With C[C@H]1CN([C@@H](C)CO)C(=O)CCCn2cc(nn2)CO[C@H]1CN(C)C(=O)Nc1ccc2c(c1)OCCO2 the relative growth was inactive: 1.01.
With CN(C)c1nc(N(C)C)nc(N(C)C)n1 the relative growth was inactive: 1.15.
CC(C)NC(=O)Nc1cccc2c1O[C@H](CN(C)Cc1ccc3c(c1)OCO3)[C@H](C)CN([C@@H](C)CO)C2=O was tested, and the relative growth was inactive: 1.01.
In the case of C[C@@H]1CN([C@@H](C)CO)C(=O)c2cccc(NC(=O)Nc3cccc4ccccc34)c2O[C@H]1CN(C)C(=O)Nc1ccc(C(F)(F)F)cc1, the relative growth is reported as inactive: 1.01.
